# Laboratory results published in the RNAGym collection of RNA variant scans (doi:10.7554/elife.90254).
# Read counts are not given, so values of variants with three or more changes are uncertain.
# B1: LINE1-mini (parent)
# chain: GGCAGAGCUCAACACAGCGUGGCAAAGUGGCUGUGGCUAGACUGCC
# Variants of: B1
# Assay: self-cleavage, relative activity (ratio to wild type); higher = more cleavage; in vitro, sequencing; the parent is a self-cleaving ribozyme
row,Variant,self-cleavage
1,A6C C10A G44U,0.03
2,A6C G22A A25C C42U,0.16
3,G5U U20A G30C U38C,0.01
4,A6C G7C A24G G29C,0.02
5,A6C C13U A14G G22C U28A G30U A39C C42A,0.01
6,G5U U34A G40A A41U,0.05
7,A6C C18G G27C C37U A39U,0.02
8,G5U U28C G40U,0
9,A6C C15U G27C C31U C42U,0.1
10,G5U U9A U28G,0.09
11,G5U U9G U32A,0.04
12,A6C G22U A24C C31U U38C,0.06
13,A6C A14C G40U,0.07
14,A6C C15U A24U U32A,0.02
15,A6C A16G G27C,0.17
16,G5U U9A G29U,0.05
17,A6C G7A C15G,0.23
18,A6C C10U U28G,0.05
19,A6C G7A C31U,0.08
20,A6C A16C C31A U34A,0.03
21,A6C C23U C37G C46A,0.03
22,G5U U9G C13U A14U C18G G21C A24C U32G G40C,0.04
23,A6C C10A G36U A41C,0.06
24,A6C A41U C42U G44C,0.04

row,Variant,self-cleavage
1,G5U U28G C45U,0
2,A6C G21U U34A U38C C45A,0.01
3,A6C A12U A14C G21U G30A G40U,0.03
4,A6C C13A G21U A41C,0.03
5,G5U U20G G21U U28A A41U,0.06
6,A6C G27A A39G,0.12
7,A6C C23A U34A,0.03
8,A6C A26G U28C,1.55
9,A6C C13A A26C,0.05
10,A6C C10A G17C C23G G33A,0.02
11,G5U U9A A16U C31A C45G C46U,0.18
12,A6C G19A U34C,0.11
13,A6C G7U U28A,0.09
14,A6C C42A U43C,0.21
15,A6C C8A C13A C23G,0.63
16,A6C C31U G35A A39U A41U,0.04
17,A6C G17C A24U A26C,0.7
18,A6C G7C C10A C15U G27A,0.01
19,A6C A14U C18U G44C C46A,0.02
20,A6C A16G U38G,0.01
21,A6C C15A C18U A25G,0.08
22,A6C A14U G29C U38C,0.22
23,A6C A12G G19U G21U,0.01
24,G5U U20G A26G,0.01

row,Variant,self-cleavage
1,A6C C23A G35U,0.09
2,A6C G19U G29C U32A,0.09
3,A6C A14C G27U,0.03
4,A6C G7U G17A C37U,0.06
5,A6C C15G G22U C37A G40C,0
6,A6C C10A G21U G36A,0.03
7,A6C G7U G36U,0.58
8,A6C G7A U38G U43G C46G,0.03
9,A6C A11G G27U U34G,0.03
10,A6C A26G C37A,0.01
11,A6C A12C C15G U38A U43C,0.01
12,A6C C15A A16G,0.04
13,A6C G17C G19A G30A,0.87
14,A6C G19C G36U,0.16
15,A6C G22A C31A G33C,0.02
16,A6C G17U G21A G33U,0.11
17,A6C C10A G22A G29C C31A,0.02
18,G5U U43G C45A,0.07
19,A6C A11G U20A,0.01
20,A6C C8A C46G,0.24
21,A6C C13G C45A,0.04
22,A6C A16C C23U A24C,0.01
23,A6C C10A A14U U34G G35A A39C C42U,0.02
24,A6C G7A C23G C31A,0.05

row,Variant,self-cleavage
1,G5U U20G U32A,0.02
2,A6C G19A C45G,0.35
3,G5U U20G A26C U43A,0.19
4,A6C A24U C42A,0.08
5,A6C A11C C23U G40C,0
6,A6C G29A A39G A41G,0.02
7,A6C C10A A24G C37A U38G,0
8,A6C C8U A16G C37U,0.03
9,A6C C13G G29C G35A,0.05
10,G5U U20G G22A C23A,0.29
11,A6C G17C G22A A39G,0.03
12,A6C C10A G21U,0.04
13,A6C C8A C15A C23U A41G,0.57
14,G5U U9A C13U,0.11
15,A6C C18A G40A,0.03
16,A6C C10A G36U G40C,0.01
17,A6C G7C G27A,0.12
18,A6C G7C A11C C45G,0.03
19,A6C G7U C10U A12U A26U C37G,0
20,A6C C23G A26G C31U G33C,0.19
21,A6C A11G C13G C42U,0.02
22,A6C G7U G29A A39U,0.3
23,A6C C31A G44A,0.08
24,G5U U20C A26U U43C C46G,0.03

row,Variant,self-cleavage
1,A6C G17U G44U,0.03
2,G5U G35U U43C,0.03
3,A6C C8A A25C,0.66
4,A6C C10U C15A,0.03
5,A6C A14U G29A,0.13
6,A6C G29A C37U,0.06
7,G5U U20C U38A,0
8,A6C G22U U28C G44C,0.25
9,A6C A11G U38A C46U,0.03
10,A6C C8A G29C,0.07
11,A6C C8A A25G C42A G44C,0.17
12,A6C C13U A24G U43C,0.02
13,A6C C18G G36A,0.06
14,A6C C18G G36U,0.03
15,A6C G7U C8A,0
16,A6C C13U G27U,0.09
17,A6C G22A C23U U43G G44C,0.24
18,A6C A14G C15A C18U U34G G36A C45A,0.01
19,A6C C10A C15U,0.06
20,A6C G21A C23A G27A C46A,0.1
21,A6C C15U G36A A41C C46A,0.05
22,A6C G7A U9C A11C C31G,0.02
23,A6C G7U G27C,0.06
24,G5U U20A A24G,0.04

row,Variant,self-cleavage
1,G5U G35U C46U,0.1
2,A6C C13A G40U,0.03
3,A6C A11C C18U C31A G40A A41G C42U,0
4,G5U G35A U38A C46G,0.02
5,A6C C15A U28A G36C,0.03
6,A6C G17U C18A G19A,0.1
7,A6C A11C A12C C46A,0.01
8,A6C G27A G35A,0.4
9,G5U U9A C15A C18U G36A,0.09
10,A6C A12G C31U C42U,0.04
11,G5U U34G U38A,0.02
12,A6C G27A G29C G36U U38A G40C,0.01
13,A6C A11U A16C G22C C42U,0.05
14,A6C G7C G17C A41C,0.02
15,A6C A16G C45U C46A,0.51
16,A6C G21A C23A C31U G40A U43A C46U,0.18
17,A6C G7A A14G,0.12
18,A6C A11C C15U U38C,0.01
19,A6C A16U G22C,0.08
20,A6C C10A C45A,0.01
21,A6C G27A U38A,0.27
22,A6C C8U A12U C23U C42G C45A,0.41
23,A6C C31A C45U,0.03
24,A6C A14U C15U,0.12

row,Variant,self-cleavage
1,A6C A26U G27C C45G,0.05
2,G5U U9A C18G,0.08
3,A6C C10A G27U G36A,0.02
4,A6C G21U G40A,0.12
5,A6C A11G G21A G22U C37U,0.02
6,G5U U20A G21A,0.06
7,A6C G27A C31A U43A,0
8,G5U U9C C45U,0.07
9,A6C C8U C18A C46U,0.18
10,A6C C13A G35A G36U G44U,0.06
11,A6C C23U U32A A39C,0.04
12,A6C A14C U28A U38C C42U,0.01
13,A6C C10U C42G,0.02
14,A6C A25U C31G U34G U38A A41C,0.02
15,A6C G21U G22U C23U,0.87
16,A6C A11G C13U A24C A26C U38G C45U,0
17,A6C G22C U32C,0.02
18,A6C A39C C45U,0.09
19,A6C G19A G33A G36C,0.11
20,G5U U9G A12G G29U G30C U32A G35A,0.02
21,G5U U28G G30C G40U,0.09
22,A6C A11U C46U,1
23,A6C C10G U43A C45U,0
